In article PMC4336329 (PLoS ONE, 2015):
The whole screen tested about 310,000 compounds, of which about 2,200 (0.71%) showed an effect of 50% or more. The effect is printed as a negative number. The list shows a part of the results. Where a SMILES comes first, the peptide text is derived from it. The star is where a group is joined. Cbz = O=C(OCc1ccccc1)*

target: human ether-à-go-go-related gene (hERG) potassium channel (human, UniProt Q12809); assay: primary screen, population patch clamp on CHO cells stably expressing hERG
Sequence (Q12809 whole entry, looked up): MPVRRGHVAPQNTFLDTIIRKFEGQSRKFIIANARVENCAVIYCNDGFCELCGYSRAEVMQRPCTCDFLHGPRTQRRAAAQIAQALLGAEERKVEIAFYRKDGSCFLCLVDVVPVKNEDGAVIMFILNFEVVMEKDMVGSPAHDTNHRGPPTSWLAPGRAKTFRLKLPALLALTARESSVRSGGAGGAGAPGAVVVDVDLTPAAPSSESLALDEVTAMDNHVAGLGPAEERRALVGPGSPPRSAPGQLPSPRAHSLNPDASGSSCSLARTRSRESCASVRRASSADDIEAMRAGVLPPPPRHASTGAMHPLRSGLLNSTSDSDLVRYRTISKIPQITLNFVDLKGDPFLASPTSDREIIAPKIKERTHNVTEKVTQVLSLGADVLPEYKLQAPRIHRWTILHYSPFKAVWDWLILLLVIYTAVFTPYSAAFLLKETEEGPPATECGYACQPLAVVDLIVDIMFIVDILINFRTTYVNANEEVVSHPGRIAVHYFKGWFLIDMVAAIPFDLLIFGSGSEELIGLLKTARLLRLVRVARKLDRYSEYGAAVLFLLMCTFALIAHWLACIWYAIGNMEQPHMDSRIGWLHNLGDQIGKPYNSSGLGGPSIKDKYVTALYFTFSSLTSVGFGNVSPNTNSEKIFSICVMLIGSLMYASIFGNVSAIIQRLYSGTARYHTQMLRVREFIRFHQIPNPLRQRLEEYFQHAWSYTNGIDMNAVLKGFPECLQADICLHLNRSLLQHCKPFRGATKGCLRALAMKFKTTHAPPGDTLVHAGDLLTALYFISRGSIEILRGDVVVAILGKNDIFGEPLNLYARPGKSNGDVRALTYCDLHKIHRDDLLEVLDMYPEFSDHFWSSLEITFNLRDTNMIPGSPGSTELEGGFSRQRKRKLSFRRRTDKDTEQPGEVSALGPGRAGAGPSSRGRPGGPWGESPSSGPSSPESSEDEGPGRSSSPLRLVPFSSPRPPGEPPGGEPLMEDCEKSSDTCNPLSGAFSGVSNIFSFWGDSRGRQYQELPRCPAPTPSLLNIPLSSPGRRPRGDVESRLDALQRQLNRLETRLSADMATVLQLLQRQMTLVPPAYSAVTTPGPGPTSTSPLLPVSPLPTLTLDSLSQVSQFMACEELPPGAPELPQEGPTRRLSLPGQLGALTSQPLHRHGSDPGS

SMILES | hERG current change (%, negative = inhibition) at 1uM
COc1cccc(C(=O)OCc2cc(=O)oc3c(C)c(C)ccc23)c1OC | 3.26%
COC(=O)c1ccc(NC(=S)NC(=O)c2cccnc2)cc1 | 16.5%
CCOC(=O)C(Cc1ccc(NC(=O)/C(=C\c2ccccc2)NC(=O)c2ccccc2)cc1)N1C(=O)c2ccccc2C1=O (stereo not drawn) | 12.9%
COc1ccc(CN2CCN(Cc3ccccc3OC)CC2)cc1.O=C(O)C(=O)O | 14%
O=C(NCCCN1CCOCC1)c1ccc(CS(=O)(=O)c2ccc(Br)cc2)o1 | 4.6%
CCCC(=O)Nc1nc2nc(C)cc(=O)n2[nH]1 | 1.69%
OCCC1CN(Cc2cnn(-c3ccc(F)cc3)c2)CCN1Cc1ccsc1 (stereo not drawn) | -28%
COc1cc(C[C@@H](CO)[C@H](CO)Cc2ccc(O)c(OC)c2)ccc1O | 11%
COc1ccc(CNC(=O)[C@@H](NC(=O)C2CCN(S(=O)(=O)c3ccc(C)cc3)CC2)C(C)C)cc1OC | 11.7%
O=C(Cn1c(SCc2ccccc2)nc2ccccc21)N1CCOCC1 | 9.86%
O=C(CSc1nc2c(cnn2-c2ccccc2)c(=O)[nH]1)N1CCOCC1 | 3.37%
CCC(=O)Nc1cccc(C2=NOC3(C2)C[C@@H](C(N)=O)N(C(=O)c2cc([N+](=O)[O-])cc([N+](=O)[O-])c2)C3)c1 (stereo partly drawn) | 14.6%
CCN(CC)S(=O)(=O)c1cc(NC(=O)CN2C(=O)NC(C)(c3ccccc3)C2=O)ccc1C (stereo not drawn) | -1.84%
CCN1CCN(C(=O)CN(C)S(=O)(=O)c2ccc(OC)cc2)CC1 | 11.5%
Cc1cc(/N=C/C=C2\N(C)c3ccccc3C2(C)C)n(CCC#N)n1 | 3.4%
C=CCN1CC(=O)N2Cc3[nH]c4ccccc4c3C[C@H]2C1=O | 13.9%
CCOc1ccc2oc(C(=O)OCC(=O)NC(=O)NC)c(C)c2c1 | 11.6%
Cc1cc(-c2nnc(SCC(=O)Nc3cccc(Cl)c3)n2N)n[nH]1 | -40.4%
Cc1cc(Nc2ccc(Cl)cc2)n2ncnc2n1 | 9.08%
OC1(c2ccccc2)C/C(=N\n2cnnc2)C=C1c1ccccc1 (stereo not drawn) | 12.3%
COc1cccc(/C=N/Nc2cc(N3CCOCC3)ncn2)c1O | 11.4%
O=C(NCc1ccccc1)c1ccc2c(c1)C(=O)N(Cc1cccnc1)C2=O | 6.22%

SMILES | hERG current change (%, negative = inhibition) at 1uM
O=C(N[C@@H](Cc1ccccc1)C(=O)N[C@@H](Cc1ccccc1)C(=O)O)OCc1ccccc1 (Cbz-Phe-Phe-OH) | 5.51%
Cc1ccc2c(c1)N(C(=O)CCC(=O)NC1CCN(Cc3ccccc3)CC1)CC(C)O2 (stereo not drawn) | -35.1%
O=C(Nc1nnc(-c2cccs2)o1)C1CC1 | 9.45%
Cc1cccc(C(=O)OCC(=O)NCC2COc3ccccc3O2)c1 (stereo not drawn) | 5.23%
Cc1cc(C)c(S(=O)(=O)c2ccccc2C)c(OCC(C)(C)C)n1 | 6.73%
C=C1CCN([C@@H](CC(C)C)C(=O)NCc2ccccc2)S(=O)(=O)c2ccccc21 | 13%
Cc1ccc(-n2ncc(Cl)c2C(=O)NC2CC2)cc1 | 7.71%
N#C/C(=C\c1c(F)cccc1Cl)c1nn(-c2ccccc2)c(-n2cccc2)c1C#N | 5.64%
COc1cc(/C=C/C(=O)OCC(=O)NCCN2C(=O)CSC2=O)ccc1OCC#N | 5.27%
COc1ccc(NC(=O)CCNS(=O)(=O)c2ccc(C)c(C)c2)cc1OC | 12.7%
Cc1nnc(NC(=O)CCS(=O)(=O)Cc2ccccc2)s1 | -33.1%
O=c1c2c(nc3cc(-c4ccccc4)[nH]n13)CCS2 | 21.5%
CCN(c1ccc(NC(=O)c2cccc(S(=O)(=O)N3CCN(C)CC3)c2)cc1)C(C)C | 8.87%
CC(C)(C)OC(=O)N[C@@H](Cc1ccccc1)c1nnc(S(=O)(=O)Cc2ccccc2)o1 | 5.19%
Cn1c(=O)[nH]c2nncnc2c1=O | 4.06%
CCOC(=O)Nc1ccc2c(c1)N(C(=O)CN(CC)CC)c1ccccc1C=C2.Cl.O | -0.132%
CCCNC(=S)N1CCC(NC(=O)C23CC4CC(CC(C4)C2)C3)CC1 | 12.1%
O=S1(=O)c2cccc3cccc(c23)N1Cc1ccc(-c2nnco2)cc1 | 10.1%
CC12CCC(=O)N1C(C(=O)Nc1ccc(F)cc1)CS2 (stereo not drawn) | 15.2%
CC(=O)c1c(C)oc2ccc(NS(=O)(=O)c3ccc(C)cc3)cc12 | 14.2%
Cc1ccc2c(c1)C1CN(C)CCC1N2C(=O)c1cccs1 (stereo not drawn) | 5.82%
CC(=O)N(c1ccc(C)cc1)S(=O)(=O)c1ccc(Cl)cc1 | 11.2%

SMILES | hERG current change (%, negative = inhibition) at 1uM
O=c1[nH]c(SCCOc2ccccc2F)nc2ccccc12 | 7.08%
CC(=O)Nc1ccc2c(c1)C(=O)N(c1cccc3ccccc13)C2=O | 5.98%
O=C(Nc1c2c(nn1-c1ccc(F)cc1)CS(=O)(=O)C2)c1ccc(S(=O)(=O)N2CCOCC2)cc1 | 23%
COCCCNC(=S)N(Cc1cccnc1)Cc1ccc(OC)c(OC)c1 | 12.6%
CCOc1ccc(C(C)=O)cc1CSc1nnc(-c2ccoc2C)n1N | 6.64%
CCCCc1c(O)nc2sc3cc(OC)ccc3n2c1=O | 4.58%
CN(C)S(=O)(=O)Oc1ccsc1C(=O)Nc1ccc(C(F)(F)F)cc1 | 6.28%
COc1ccc(CNc2nc(-c3cccnc3)nn2S(C)(=O)=O)cc1 | 14.5%
Cc1ccc(-c2cc(C(=O)NC3CCCCC3)no2)cc1 | 16.8%
CC(C)(C)c1ccc(-n2ncc3c2CCCC3NC(=O)CCN2CCCCC2=O)cc1 (stereo not drawn) | 12%
Cc1nn(Cc2ccccc2)c(C)c1NC(=O)CSc1nc(C2CC2)nc2c1cnn2-c1ccccc1 | 18.2%
CCCCOC(=O)c1ccc(NC(=O)c2ccoc2C)cc1 | 7.39%
COc1ccc(CC2=C(O)c3ccccc3C(=O)C2=O)cc1 | 13.5%
Cc1ccc(S(=O)(=O)NC(=O)c2cc(C)n(-c3cc(S(=O)(=O)N4CCOCC4)ccc3N3CCCC3)c2C)cc1 | -10.7%
CNC(=S)N/N=C/c1ccc(-c2cc([N+](=O)[O-])ccc2Cl)o1 | 5.68%
CCOC(=O)/C(=C/c1ccccc1)NC(=O)c1ccco1 | 6.98%
COc1ccc(S(=O)(=O)N(C)C)cc1NC(=O)CCCSc1ccccc1 | -5.8%
O=C1/C(=C/c2cccs2)CCC1C1CCCC1 (stereo not drawn) | 14.4%
CCOc1ccc(-c2c[n+]3c(n2-c2ccccc2)CCCCC3)cc1.[Br-] | -30.6%
Cc1ccc(NCCC(=O)c2cccs2)cc1Cl | 13.2%
CCOC(=O)Cn1c(C)nc2ccccc21 | -3.72%
O=C(Nc1ccc2c(c1)OCO2)N1CCN(S(=O)(=O)c2ccc(Cl)cc2)CC1 | -2.72%

SMILES | hERG current change (%, negative = inhibition) at 1uM
Cc1ccc(N=C2SCCCN2C(=O)C2=COCCO2)cc1Cl | 20.1%
O=C(Nc1cc(-c2nc3ncccc3o2)ccc1Cl)c1ccc([N+](=O)[O-])o1 | -3.77%
O=C(CSCC(=O)OCC(=O)c1ccc(Br)cc1)Nc1cccc2ccccc12 | 9.43%
CC(C)/C=C1\CC/C(=C\c2ccc(N(C)C)cc2)C1=O | 12.4%
Cc1sc2ncn(CC(=O)NCCCC(=O)N3CCN(c4ccccc4)CC3)c(=O)c2c1C | -3.48%
CCCN1CCC(N2CCN(c3cccc(C(F)(F)F)c3)CC2)CC1 | -31.5%
Nc1ccc(C(=O)N/N=C\C=C\c2ccc([N+](=O)[O-])cc2)cc1 | 6.63%
Cc1ccc(C(=O)CN2C(=O)NC3(CCCCC3C)C2=O)s1 (stereo not drawn) | 3.21%
Cc1cccc2cc(C#N)c(NCCNC(=S)NCCCN3CCOCC3)nc12 | 4.84%
CC(=O)c1cccc(CN2CCCC(C(=O)c3ccc4c(c3)OCO4)C2)c1 (stereo not drawn) | -18.6%
COc1ccc(OCC(=O)NNC(=S)NC(=O)c2ccc(Br)o2)cc1 | 7.66%
COc1cc(C2NC(=O)c3ccccc3O2)ccc1OC(C)C (stereo not drawn) | 14.6%
O=C(Nc1nc2c(s1)CCc1ccccc1-2)c1ccco1 | -2.37%
COc1cccc(-n2c(C)nn(CCOc3ccccc3)c2=O)c1 | 5.95%
COC(=O)[C@H](C)NC(=O)Nc1ccc(C)c(C)c1 | 15.2%
COCCn1nnnc1C(c1ccccc1OC)N1CCN(C(=O)c2ccco2)CC1 (stereo not drawn) | -5.55%
O=[N+]([O-])c1ccc(C(O)CNC(=S)Nc2ccccc2)cc1 (stereo not drawn) | 5.73%
CCOC(=O)N1CCN(C(=O)C(=O)NN)CC1 | 4.73%
CCCN(CC(=O)Nc1ccccc1OC)C(=O)c1ccncc1 | 12.3%
O=C(COc1cccc2cccnc12)NCC(F)(F)F | 10.5%
COc1ccc(NC(=O)CCCC2CCCCC2)c(OC)c1 | 11.3%
